According to the antibiotic and cytotoxicity screens of Wong et al. (2023):
Some of the results follow.

Key:
[1] = test system: HSkMC (human skeletal muscle cells); test: cytotoxicity call (relative viability < 0.9); conditions: 10 µM
[2] = test system: HepG2; test: cytotoxicity call (relative viability < 0.9); conditions: 10 µM
[3] = test system: S. aureus RN4220; test: growth inhibition call (relative growth <= 0.2); conditions: 50 µM

Row | SMILES | cytotoxicity call [1] | cytotoxicity call [2] | growth inhibition call [3]
1 | S=C=Nc1ccc(N=C=S)cc1 | inactive | inactive | inactive
2 | COc1ccc(C#Cc2cccc(-c3nc(C(=O)N4CCN(Cc5ccccc5)CC4)cc4c3[C@H](CCO)N(S(=O)C(C)(C)C)C4)c2)cc1OC (some centres not stated) | inactive | inactive | inactive
3 | C[C@@H]1CCCCO[C@@H](CN(C)C(=O)Nc2ccccc2)[C@H](C)CN([C@@H](C)CO)C(=O)c2cc(NC(=O)c3ccncc3)ccc2O1 | inactive | inactive | inactive
4 | C[C@@H]1CCCCO[C@@H](CN(C)Cc2ccccc2)[C@@H](C)CN([C@H](C)CO)C(=O)c2cc(NC(=O)Nc3ccc(F)cc3)ccc2O1 | inactive | inactive | inactive
5 | CN1C(=O)C[C@H](Nc2ccc(N(C)C)cc2)C1=O | inactive | inactive | inactive
6 | C[C@@H]1CCCCO[C@H](CN(C)CC2CCCCC2)[C@@H](C)CN([C@@H](C)CO)C(=O)c2cc(NS(=O)(=O)c3cccs3)ccc2O1 | inactive | inactive | inactive
7 | C[C@@H]1CN([C@@H](C)CO)C(=O)CCCn2cc(nn2)CO[C@H]1CN(C)Cc1ccc(C(=O)Nc2ccccc2N)cc1 | inactive | inactive | inactive
8 | O=C(C[C@@H]1C[C@H]2c3cc(NS(=O)(=O)c4ccc(F)cc4)ccc3O[C@H]2[C@H](CO)O1)NCc1ccncc1 | inactive | inactive | inactive
9 | C[C@H]1CN([C@@H](C)CO)C(=O)c2cc(NC(=O)C3CCCCC3)ccc2O[C@H]1CN(C)Cc1ccc(Cl)c(Cl)c1 | inactive | inactive | inactive
10 | COCC(=O)N1C[C@@H](C)[C@@H](OC)CN(C)C(=O)c2ccc(NC(=O)c3ccc(OC)cc3)cc2OC[C@@H]1C | inactive | inactive | inactive
11 | C[C@H](CO)N1C[C@H](C)[C@H](CN(C)Cc2cccc(C(F)(F)F)c2)Oc2ncc(-c3ccccc3)cc2C1=O | inactive | inactive | inactive
12 | COC(=O)C1=CO[C@@H](O[C@@H]2O[C@H](CO)[C@@H](O)[C@H](O)[C@H]2O)[C@@H]2[C@@H](C)[C@@H](OC(=O)/C=C/c3ccc(O)cc3)[C@@H](O)[C@H]12 | inactive | inactive | inactive
13 | CO[C@@H]1CN(C)C(=O)c2cc(NS(=O)(=O)c3cn(C)cn3)ccc2OC[C@H](C)N(Cc2cccc(F)c2)C[C@H]1C | inactive | inactive | inactive
14 | C[C@@H]1CN([C@H](C)CO)C(=O)c2cc(NC(=O)Cn3cnnn3)ccc2O[C@@H]1CN(C)C(=O)Nc1ccc(C(F)(F)F)cc1 | inactive | inactive | inactive
15 | CCOC(=O)N(C)C[C@H]1OCc2cn(nn2)CCCC(=O)N([C@@H](C)CO)C[C@@H]1C | inactive | inactive | inactive
16 | O=C(N[C@@H](c1cccnc1)c1ccc2c(c1)OCO2)C1CCN(CCOc2ccc(Cl)cc2Cl)CC1 | inactive | inactive | active
17 | C[C@H](CO)N1C[C@H](C)[C@@H](CN(C)Cc2ccc(Cl)c(Cl)c2)Oc2ccc(NC(=O)NC3CCCCC3)cc2C1=O | inactive | inactive | inactive
18 | COc1ccc(S(=O)(=O)Nc2ccc3c(c2)C(=O)N([C@H](C)CO)C[C@@H](C)[C@@H](CN(C)Cc2ccc(C(F)(F)F)cc2)OCCCC[C@H](C)O3)cc1 | inactive | inactive | inactive
19 | CC(=O)Oc1cc(OC(C)=O)c2c(c1)O[C@H](c1ccc(OC(C)=O)c(OC(C)=O)c1)[C@H](OC(C)=O)C2 | inactive | inactive | inactive
20 | CC(C)c1cccc(C(C)C)c1NC(=O)Cc1cccs1 | inactive | inactive | inactive
21 | C[C@@H]1CCCCO[C@H](CN(C)C(=O)Nc2cccc3ccccc23)[C@H](C)CN([C@H](C)CO)C(=O)c2cc(NC(=O)Cc3ccccc3)ccc2O1 | inactive | active | inactive
22 | C[C@H](CO)N1C[C@H](C)[C@@H](CN(C)Cc2ccc(Cl)c(Cl)c2)OCCCC[C@H](C)Oc2ccc(NC(=O)C3CCCCC3)cc2C1=O | inactive | inactive | inactive
23 | Cc1ccc(S(=O)(=O)N(C)C[C@H]2Oc3c(NS(=O)(=O)c4c(C)noc4C)cccc3C(=O)N([C@@H](C)CO)C[C@H]2C)cc1 | inactive | inactive | inactive
24 | C[C@@H]1CN([C@@H](C)CO)C(=O)c2cc(NC(=O)Nc3ccc(C(F)(F)F)cc3)ccc2O[C@H]1CN(C)Cc1ccc2c(c1)OCO2 | active | active | inactive
25 | CC1=CC(=O)N(c2ccn(C)n2)C1=O | inactive | inactive | inactive
26 | COc1ccccc1C(=O)Nc1ccc2c(c1)C(=O)N(C)[C@@H]1CC[C@@H](CC(=O)NCCc3ccncc3)O[C@@H]1CO2 | inactive | inactive | inactive
27 | C[C@H](CO)N1C[C@H](C)[C@H](CN(C)S(C)(=O)=O)Oc2c(cccc2N(C)C)C1=O | inactive | inactive | inactive

Row | SMILES | cytotoxicity call [1] | cytotoxicity call [2] | growth inhibition call [3]
28 | NC[C@@H](O)COc1ccc2c(c1)OCO2 | inactive | inactive | inactive
29 | C[C@@H]1CCCCO[C@@H](CN(C)Cc2ccc(C(=O)Nc3ccccc3N)cc2)[C@@H](C)CN([C@@H](C)CO)C(=O)c2cc(N(C)C)ccc2O1 | inactive | inactive | inactive
30 | COc1ccc(S(=O)(=O)N2C[C@@H](O)COC[C@@H]3O[C@@H](CC(=O)NCCN4CCCCC4)CC[C@H]32)cc1 | inactive | inactive | inactive
31 | CNC(=O)C[C@@H]1CC[C@@H]2[C@@H](COc3ccc(NC(=O)c4ccc(C(F)(F)F)cc4)cc3C(=O)N2C)O1 | inactive | inactive | inactive
32 | C[C@H]1CN([C@@H](C)CO)C(=O)c2cccc(NC(=O)C3CCOCC3)c2O[C@@H]1CN(C)Cc1ccc(Oc2ccccc2)cc1 | inactive | inactive | inactive
33 | C[C@@H]1CN([C@@H](C)CO)C(=O)c2cc(NC(=O)Nc3cccc4ccccc34)ccc2O[C@@H]1CN(C)Cc1ccc(Cl)c(Cl)c1 | inactive | inactive | inactive
34 | COc1ccccc1NC(=O)N(C)C[C@H]1OCc2ccccc2-c2c(n(C)c3ccccc23)C(=O)N([C@H](C)CO)C[C@H]1C | inactive | inactive | inactive
35 | N=C(N)NCCC[C@@H]1NC(=O)[C@@H](N)CSSC[C@@H](C(=O)O)NC(=O)[C@H](CC(=O)O)NC(=O)[C@@H]2CCCN2C(=O)CNC(=O)[C@H](CCCCN)NC(=O)[C@H](CC(=O)O)NC(=O)CNC1=O | inactive | inactive | inactive
36 | CCCN(C)C[C@H]1OCCCC[C@@H](C)Oc2ccc(NS(C)(=O)=O)cc2C(=O)N([C@@H](C)CO)C[C@H]1C | inactive | inactive | inactive
37 | CC(C)NC(=O)N(C)C[C@H]1OCCCC[C@@H](C)Oc2ccc(NC(=O)C3CCCCC3)cc2C(=O)N([C@@H](C)CO)C[C@H]1C | inactive | inactive | inactive
38 | Cc1c(C(N)=O)cc([N+](=O)[O-])cc1[N+](=O)[O-] | inactive | inactive | inactive
39 | O=C(CCCCCNC(=O)OCc1ccc(CN(C(=O)Nc2ccccc2)[C@@H](Cc2ccccc2)Cn2cc(-c3ccccn3)nn2)cc1)NO | inactive | inactive | inactive
40 | CO[C@H]1CN(C)C(=O)c2ccc(NC(=O)c3ccccc3)cc2OC[C@H](C)N(C(=O)CN(C)C)C[C@H]1C | inactive | inactive | inactive
41 | O=C(CN1CCOCC1)N[C@@H]1CC[C@@H](CCNC(=O)Nc2cc(F)ccc2F)O[C@H]1CO | inactive | inactive | inactive
42 | O=C(NO)c1cccc(C(=O)N/N=C/[C@H](O)[C@@H](O)[C@H](O)[C@H](O)CO[C@H]2O[C@H](CO)[C@H](O)[C@H](O)[C@H]2O)c1 | inactive | inactive | inactive
43 | C[C@@H]1CN([C@@H](C)CO)C(=O)CCCn2cc(nn2)CO[C@@H]1CN(C)C(=O)CCCN(C)C | inactive | inactive | inactive
44 | CCN1CCN(C(=O)CN2C(=O)c3ccccc3S2(=O)=O)CC1 | inactive | inactive | inactive
45 | C[C@@H]1CCCCO[C@H](CN(C)C(=O)Nc2cccc3ccccc23)[C@@H](C)CN([C@H](C)CO)C(=O)c2cc(NS(C)(=O)=O)ccc2O1 | inactive | inactive | inactive
46 | COc1ccc(CN(C)C[C@H]2Oc3c(NC(=O)c4ccc(-c5nccs5)cc4)cccc3C(=O)N([C@H](C)CO)C[C@H]2C)cc1 | inactive | inactive | inactive
47 | CN(C)CCNC(=O)COc1c2cccc1Cc1cccc(c1OCC(=O)NCCN(C)C)Cc1cccc(c1OCC(=O)NCCN(C)C)Cc1cccc(c1OCC(=O)NCCN(C)C)C2 | inactive | inactive | inactive
48 | C[C@@H]1CN([C@H](C)CO)C(=O)c2cc(NC(=O)Nc3ccccc3)ccc2O[C@@H](C)CCCCO[C@@H]1CN(C)C(=O)c1ccccc1 | inactive | inactive | inactive
49 | COc1ccc(CN(C)C[C@H]2OCCCC[C@@H](C)Oc3ccc(NS(=O)(=O)c4c(C)noc4C)cc3C(=O)N([C@@H](C)CO)C[C@@H]2C)cc1 | inactive | inactive | inactive
50 | C[C@H]1CN([C@@H](C)CO)C(=O)CCCn2nncc2CO[C@@H]1CN(C)C(=O)Nc1ccc(N2CCCCC2)cc1 | inactive | inactive | inactive
51 | C[C@H](CO)N1C[C@H](C)[C@@H](CN(C)S(C)(=O)=O)Oc2ccc(NC(=O)Nc3ccc4c(c3)OCO4)cc2CC1=O | inactive | inactive | inactive
52 | COc1ccccc1S(=O)(=O)N[C@@H]1C=C[C@H](CC(=O)N2CCOCC2)O[C@@H]1CO | inactive | inactive | inactive
53 | O=C(C[C@H]1C[C@H]2c3cc(NC(=O)C4CCOCC4)ccc3O[C@H]2[C@@H](CO)O1)NCCN1CCCCC1 | inactive | inactive | inactive
54 | O=C(C[C@H]1CC[C@H]2[C@@H](COC[C@@H](O)CN2S(=O)(=O)c2cccc(Cl)c2)O1)NCc1ccncn1 | inactive | inactive | inactive
